{"source": "the supplement of paper PMC8728848", "binders": {"B1": {"name": "Calsepa (Calystegia sepium), P93114 (protein)", "chain": "MAVPMDTISGPWGNNGGNFWSFRPVNKINQIVISYGGGGNNPIALTFSSTKADGSKDTITVGGGGPDSITGTEMVNIGTDEYLTGISGTFGIYLDNNVLRSITFTTNLKAHGPYGQKVGTPFSSANVVGNEIVGFLGRSGYYVDAIGTYNRHK"}}, "experiment_in_all_cases": "glycan array binding signal (z-score within array); higher = stronger binding", "conditions_in_all_cases": "glycan notation: IUPAC condensed, linker removed", "key": {"[1]": {"biological_target": "Neu5Ac(a2-3)Gal(b1-4)[Fuc(a1-3)]GlcNAc(b1-3)Gal(b1-4)[Fuc(a1-3)]GlcNAc(b1-3)Gal(b1-4)[Fuc(a1-3)]GlcNAc", "procedure,_shortened": "(§1)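 The binding signal is a Z-score computed within each array and averaged over linkers. Arrays of the same protein sequence at different concentrations or buffers were also averaged together. Data originate from 3228 arrays in the Consortium for Functional Glycomics database, kept only where the protein sequence was available.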"}, "[2]": {"biological_target": "Neu5Ac(a2-3)Gal(b1-4)[Fuc(a1-3)]GlcNAc(b1-3)GalNAc", "procedure,_shortened": "as §1"}, "[3]": {"biological_target": "Neu5Ac(a2-3)Gal(b1-4)[Fuc(a1-3)]GlcNAc(b1-6)[Gal(b1-3)]GalNAc", "procedure,_shortened": "as §1"}, "[4]": {"biological_target": "Neu5Ac(a2-3)Gal(b1-4)[Fuc(a1-3)]GlcNAc(b1-6)[Neu5Ac(a2-3)Gal(b1-3)]GalNAc", "procedure,_shortened": "as §1"}, "[5]": {"biological_target": "Neu5Ac(a2-3)Gal(b1-4)[Fuc(a1-3)]GlcNAc6S", "procedure,_shortened": "as §1"}, "[6]": {"biological_target": "Neu5Ac(a2-3)Gal6S(b1-4)GlcNAc", "procedure,_shortened": "as §1"}, "[7]": {"biological_target": "Neu5Ac(a2-3)Gal6S(b1-4)[Fuc(a1-3)]GlcNAc", "procedure,_shortened": "as §1"}, "[8]": {"biological_target": "Neu5Ac(a2-3)GalNAc", "procedure,_shortened": "as §1"}, "[9]": {"biological_target": "Neu5Ac(a2-3)GalNAc(b1-4)GlcNAc", "procedure,_shortened": "as §1"}, "[10]": {"biological_target": "Neu5Ac(a2-3)[GalNAc(b1-4)]Gal(b1-4)Glc", "procedure,_shortened": "as §1"}, "[11]": {"biological_target": "Neu5Ac(a2-3)[GalNAc(b1-4)]Gal(b1-4)GlcNAc", "procedure,_shortened": "as §1"}, "[12]": {"biological_target": "Neu5Ac(a2-3)[GalNAc(b1-4)]Gal(b1-4)GlcNAc(b1-3)GalNAc", "procedure,_shortened": "as §1"}, "[13]": {"biological_target": "Neu5Ac(a2-3)[Neu5Ac(a2-6)]GalNAc", "procedure,_shortened": "as §1"}, "[14]": {"biological_target": "Neu5Ac(a2-6)Gal", "procedure,_shortened": "as §1"}, "[15]": {"biological_target": "Neu5Ac(a2-6)Gal(b1-3)GlcNAc(b1-3)[Gal(b1-4)GlcNAc(b1-6)]Gal(b1-4)Glc", "procedure,_shortened": "as §1"}, "[16]": {"biological_target": "Neu5Ac(a2-6)Gal(b1-4)Glc", "procedure,_shortened": "as §1"}, "[17]": {"biological_target": "Neu5Ac(a2-6)Gal(b1-4)GlcNAc", "procedure,_shortened": "as §1"}, "[18]": {"biological_target": "Neu5Ac(a2-6)Gal(b1-4)GlcNAc(b1-2)Man(a1-3)Man(b1-4)GlcNAc(b1-4)GlcNAc", "procedure,_shortened": "as §1"}, "[19]": {"biological_target": "Neu5Ac(a2-6)Gal(b1-4)GlcNAc(b1-2)Man(a1-3)[Gal(b1-4)GlcNAc(b1-2)Man(a1-6)]Man(b1-4)GlcNAc(b1-4)GlcNAc", "procedure,_shortened": "as §1"}, "[20]": {"biological_target": "Neu5Ac(a2-6)Gal(b1-4)GlcNAc(b1-2)Man(a1-3)[GlcNAc(b1-2)Man(a1-6)]Man(b1-4)GlcNAc(b1-4)GlcNAc", "procedure,_shortened": "as §1"}, "[21]": {"biological_target": "Neu5Ac(a2-6)Gal(b1-4)GlcNAc(b1-2)Man(a1-3)[GlcNAc(b1-2)Man(b1-4)GlcNAc(b1-2)Man(a1-6)]Man(b1-4)GlcNAc(b1-4)GlcNAc", "procedure,_shortened": "as §1"}, "[22]": {"biological_target": "Neu5Ac(a2-6)Gal(b1-4)GlcNAc(b1-2)Man(a1-3)[Man(a1-6)]Man(b1-4)GlcNAc(b1-4)GlcNAc", "procedure,_shortened": "as §1"}, "[23]": {"biological_target": "Neu5Ac(a2-6)Gal(b1-4)GlcNAc(b1-2)Man(a1-3)[Neu5Ac(a2-6)Gal(b1-4)GlcNAc(b1-2)Man(a1-6)]Man(b1-4)GlcNAc(b1-4)GlcNAc", "procedure,_shortened": "as §1"}, "[24]": {"biological_target": "Neu5Ac(a2-6)Gal(b1-4)GlcNAc(b1-2)Man(a1-3)[Neu5Ac(a2-6)Gal(b1-4)GlcNAc(b1-2)Man(a1-6)]Man(b1-4)GlcNAc(b1-4)[Fuc(a1-6)]GlcNAc", "procedure,_shortened": "as §1"}, "[25]": {"biological_target": "Neu5Ac(a2-6)Gal(b1-4)GlcNAc(b1-2)Man(a1-6)Man(b1-4)GlcNAc(b1-4)GlcNAc", "procedure,_shortened": "as §1"}, "[26]": {"biological_target": "Neu5Ac(a2-6)Gal(b1-4)GlcNAc(b1-2)Man(a1-6)[Gal(b1-4)GlcNAc(b1-2)Man(a1-3)]Man(b1-4)GlcNAc(b1-4)GlcNAc", "procedure,_shortened": "as §1"}, "[27]": {"biological_target": "Neu5Ac(a2-6)Gal(b1-4)GlcNAc(b1-2)Man(a1-6)[GlcNAc(b1-2)Man(a1-3)]Man(b1-4)GlcNAc(b1-4)GlcNAc", "procedure,_shortened": "as §1"}, "[28]": {"biological_target": "Neu5Ac(a2-6)Gal(b1-4)GlcNAc(b1-2)Man(a1-6)[Man(a1-3)]Man(b1-4)GlcNAc(b1-4)GlcNAc", "procedure,_shortened": "as §1"}, "[29]": {"biological_target": "Neu5Ac(a2-6)Gal(b1-4)GlcNAc(b1-3)Gal(b1-3)GlcNAc", "procedure,_shortened": "as §1"}, "[30]": {"biological_target": "Neu5Ac(a2-6)Gal(b1-4)GlcNAc(b1-3)Gal(b1-4)GlcNAc", "procedure,_shortened": "as §1"}, "[31]": {"biological_target": "Neu5Ac(a2-6)Gal(b1-4)GlcNAc(b1-3)Gal(b1-4)GlcNAc(b1-3)Gal(b1-4)GlcNAc", "procedure,_shortened": "as §1"}, "[32]": {"biological_target": "Neu5Ac(a2-6)Gal(b1-4)GlcNAc(b1-3)Gal(b1-4)[Fuc(a1-3)]GlcNAc(b1-3)Gal(b1-4)[Fuc(a1-3)]GlcNAc", "procedure,_shortened": "as §1"}}, "note": "The list shows a part of the results."}
{"binder": "B1", "values": [{"measurement": "glycan array binding signal (z-score)", "setting": "[1]", "value": -0.241}, {"measurement": "glycan array binding signal (z-score)", "setting": "[2]", "value": -0.251}, {"measurement": "glycan array binding signal (z-score)", "setting": "[3]", "value": -0.247}, {"measurement": "glycan array binding signal (z-score)", "setting": "[4]", "value": -0.188}, {"measurement": "glycan array binding signal (z-score)", "setting": "[5]", "value": -0.244}, {"measurement": "glycan array binding signal (z-score)", "setting": "[6]", "value": -0.255}, {"measurement": "glycan array binding signal (z-score)", "setting": "[7]", "value": -0.248}, {"measurement": "glycan array binding signal (z-score)", "setting": "[8]", "value": -0.253}, {"measurement": "glycan array binding signal (z-score)", "setting": "[9]", "value": -0.249}, {"measurement": "glycan array binding signal (z-score)", "setting": "[10]", "value": -0.253}, {"measurement": "glycan array binding signal (z-score)", "setting": "[11]", "value": -0.243}, {"measurement": "glycan array binding signal (z-score)", "setting": "[12]", "value": -0.272}, {"measurement": "glycan array binding signal (z-score)", "setting": "[13]", "value": -0.242}, {"measurement": "glycan array binding signal (z-score)", "setting": "[14]", "value": -0.241}, {"measurement": "glycan array binding signal (z-score)", "setting": "[15]", "value": -0.273}, {"measurement": "glycan array binding signal (z-score)", "setting": "[16]", "value": -0.249}, {"measurement": "glycan array binding signal (z-score)", "setting": "[17]", "value": -0.247}, {"measurement": "glycan array binding signal (z-score)", "setting": "[18]", "value": 6.79}, {"measurement": "glycan array binding signal (z-score)", "setting": "[19]", "value": 3.54}, {"measurement": "glycan array binding signal (z-score)", "setting": "[20]", "value": 3.81}, {"measurement": "glycan array binding signal (z-score)", "setting": "[21]", "value": 3.49}, {"measurement": "glycan array binding signal (z-score)", "setting": "[22]", "value": 3.86}, {"measurement": "glycan array binding signal (z-score)", "setting": "[23]", "value": 4.29}, {"measurement": "glycan array binding signal (z-score)", "setting": "[24]", "value": 0.514}, {"measurement": "glycan array binding signal (z-score)", "setting": "[25]", "value": -0.246}, {"measurement": "glycan array binding signal (z-score)", "setting": "[26]", "value": 4.01}, {"measurement": "glycan array binding signal (z-score)", "setting": "[27]", "value": 0.796}, {"measurement": "glycan array binding signal (z-score)", "setting": "[28]", "value": 2}, {"measurement": "glycan array binding signal (z-score)", "setting": "[29]", "value": -0.248}, {"measurement": "glycan array binding signal (z-score)", "setting": "[30]", "value": -0.248}, {"measurement": "glycan array binding signal (z-score)", "setting": "[31]", "value": -0.248}, {"measurement": "glycan array binding signal (z-score)", "setting": "[32]", "value": -0.238}]}
